Experimental data reported in the supplement of paper PMC11417369.
The other results are listed elsewhere or left out.

Tested on: PfAP2-HC AP2 domain (GST-tagged)
Test: gcPBM binding intensity (ln(normalized median fluorescence intensity)); higher = stronger DNA binding
How it was run: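 Probes on an Agilent 4 × 180k array were primer-extended, double-stranded and 36 bp long, taken from intergenic genomic regions, with negative controls added. GST-tagged P. falciparum DNA-binding domains from E. coli, about 25 μg on average, were applied to the array for 1 h in 1× PBS containing 1% milk, 0.2 mg/ml BSA, 0.5% salmon testes DNA and 0.03% Triton X-100. Binding intensity, obtained after Alexa488 anti-GST antibody detection and a 488 nm scan, is the highest Masliner-normalised natural-log median intensity across replicate spots of either probe orientation.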

Point of comparison: “TTTTTTTTTTTCATGTGTACATATATTTTCACTTTA [XGTACX_site4475]”, “gcPBM binding intensity (ln)” value 9.76. Against it:
- GACAAATTAATCGATTGTACACAATTTGTTTCGTTG [XGTACX_site35] — higher, 9.8
- TTCACATATATATAACGTACATTATTATTATTCTGA [XGTACX_site6006] — lower, 9.63
- TTTTTTTTTCCTTCTTGTACATATTATATATACATA [XGTACX_site5988] — lower, 9.7
- TGGAACGTAATAAAATGTACATACGTTTTTCATATG [XGTACX_site6229] — lower, 9.73
- TCTTATTTAATTAAACAAAAGAAAAAGAAAGAAAAG [CACACA_negctrl_site1569] — lower, 9.43
- TACAAGTATAAATAAGCACACATGTGTATATGTACA [CACACA_site7911] — higher, 10
- TTAGAAGGGATTAAAGTGCAAAATAGGATTAGAGTA — the same, 9.76
- GTTTTACACAGACATGCATGTGAAAATTTGATGGTA [TGCATGCA_site308] — higher, 9.85
- TATCATCATGTATGTACACACATACCTATATTATGT [CACACA_site6768] — higher, 10.2
- TTTATTTCTATATTTACATGCAAAGGGTTAGTTATA [TGCATGCA_site983] — lower, 9.46
- GATCTTTTTTTTCTTACTTTACAATTTTTTTTTTAC [XGTACX_negctrl_site101] — lower, 9.73
- AAGAAAAAGAATAGACGGACAACTAATATAAAATAT [XGTACX_site7905] — higher, 9.8
- AAAATAACAAAATAAAGTACTTTTAAAAGATATAAT [XGTACX_site7632] — higher, 9.84
- GATTTTCTAATTTCTACACACATATAAGAATATTCA [CACACA_site7340] — lower, 9.7
- TTTTTAATTCAAACAATAATATGTTATATTTCAAAT [TGCATGCA_negctrl_site27] — lower, 9.44
- TGTATAAAACATGGGTGTACTGAACTCAATCATATA [XGTACX_site1215] — lower, 9.61
- TAAAATTATATAAAGGAACACACATTTTATTTTATT [CACACA_site8423] — lower, 9.68
- AATATATTTTAATATACACACATATCTGCTCTTTAA [CACACA_site6130] — higher, 9.8
- TCATTGTTAAGCTGAAGTACTTATAATTACATCGAG [XGTACX_site6340] — lower, 9.45
- TATTAGCATGTTATTACACACAATATAAAATATATA [CACACA_site1401] — lower, 9.66
- TGTCAATCATATAAATGTACATTTTAAATGAGGTGT [XGTACX_site7391] — lower, 9.62
- GAAAAGAAAAATAAACGTACATAAATATTAACATTA [XGTACX_site8213] — lower, 9.61
- CAAATAAAAATAAGGAGTACAATTAAAAAAGGAAGG [XGTACX_site4366] — higher, 9.8
- AAAATAAAAAAGTGTACACATATTAAAATGTATTTA [CACACA_site4424] — the same, 9.76
- ATTATATAAATTATATGTACGTATTTTTTTTTTTTT [XGTACX_site1908] — lower, 9.62
- AATTAAATTACTTATACACACATAAAATGTCTGTAT [CACACA_site997] — higher, 9.97
- AAATTATGAACATATTGTACATATATATATATATAT [XGTACX_site8269] — lower, 9.73
- CATGTATGTACCATGGTGCAACAATATTTTTAACAA [GTGCAC_site9597] — lower, 9.45
- AAGATAACAAGTAATCAATCTAATTATTAATTATAT [CACACA_negctrl_site1713] — lower, 9.52
- AAAAGAAAAATGTCATATGATATCATATATTTTATA [GTGCAC_negctrl_site185] — lower, 9.55
- AAAAATATGTGATAATGTACTTTTCATTTTTATTTT [XGTACX_site8544] — lower, 9.63
- ATAATTATATATATATGTACATATTATATATATATA [XGTACX_site4526] — lower, 9.66
- CATAAATACATACATACACACATATTTATATTTATA [CACACA_site7071] — higher, 10.1
- ATATACATATATATATGTACTGAAAAGAAAAGAATT [XGTACX_site150] — higher, 9.82
- TGTTTTTAAATTTAAATCAAAAAATAAAATAAAATA [GTGCAC_negctrl_site355] — lower, 9.15
- TTTTTATTTTATAATATATTCCTTTTCCTTTCTTTC [CACACA_negctrl_site245] — lower, 9.5
- TACATATATATAAATACACACACACCCACCTTATAA [CACACA_site9346] — higher, 10.6
- TTATTAGAAAAATGCACACCAAAAAAAAAAAAAAAA [CACACA_site2522] — lower, 9.53
- ATACATATACACATATGTACATATGAAAAGAAAAAT [XGTACX_site6445] — higher, 10.1
- TATATATATTGTGTATGTACATATATATAAATATTG [XGTACX_site433] — lower, 9.65
- TTCATTTGAAAACTGTGTACTTAAAAATATACATAT [XGTACX_site176] — lower, 9.59
- AATATAATATAATGCACACATAAACAAAAAAAAAAT [CACACA_site1304] — higher, 10.2
- ATATATTTAAATAAATGTACAAATCATAAATTCAAG [XGTACX_site1417] — lower, 9.69
- TATATATTTTATTATTGTACGAATTATTTATTTTAC [XGTACX_site8105] — lower, 9.7
- TACATCATCTATAAGGTGCATTTTAGTTCTATTAAA — lower, 9.52
- TTTTTTCTAATATCTTTGCCTTTTTCTTTATTTATT [CACACA_negctrl_site1053] — higher, 9.87
- ATATATATATATATATGTACATATGTATGTGTTTGT [XGTACX_site397] — higher, 9.93
- TATACTCATTTTTATACACACTTGTTTTATAAAACG [CACACA_site4561] — higher, 9.78
- AAATTTATTATGAACATACACACAAAAAAAAAAAGT [CACACA_site2053] — higher, 10
- CTATATGTATAAAGTTGTACAGTTTTTCAAAGTTAA [XGTACX_site6652] — lower, 9.53
- TTTTTTTTTTTTTTGTGTACATATAATGCACATTAT [XGTACX_site6505] — lower, 9.6
- TACTTTTATATAGAAAGTACATACAATTCATAGAAT [XGTACX_site2182] — lower, 9.45
- TATTGAAACCCACACGAACACACGTATTTCATAAAC [CACACA_site251] — higher, 9.91
- TATAAAAAGCATAACACACACATGTCAATATAAATA [CACACA_site6648] — higher, 10.1
- ATGGACATTTTATAAATCACAATGGATATTTTATAA [CACACA_negctrl_site1830] — lower, 9.39
- AAACCGTGGGAGCACACACACACACCCACCCATATA [CACACA_site332] — higher, 10.4
- ACAAAACAAAACAAAAGTACACAAAATAAATAAGAT [XGTACX_site6497] — higher, 10
- ATAATAACAAAATATTAACACACATAACATATTATA [CACACA_site8906] — higher, 9.9
- AATCCTTAAAATTAACGTACGAAATGAATTTATTAA [XGTACX_site956] — lower, 9.53
- TGGAGGTCATTACACAGTACCCAGGAAATCTACGGA [XGTACX_site2004] — lower, 9.37
- ATAAATAAATACTAGGCACACACACCGATATATATA [CACACA_site8649] — higher, 10.4
- TATTAATCCTTTTGCTTGGAAACATTCAAAAGGAAG [CACACA_negctrl_site1129] — lower, 9.27
- AAAATAAACCCAGACACACTCATTAAAAAATATCAT [CACACA_site5903] — higher, 9.93
- ATATATATAAAATATGGTACAGAAAAAGTCTTGTTT [XGTACX_site8868] — higher, 9.83
- TTCTGTCAATATGCTTGTACGAAATATTTCGTAATT [XGTACX_site3182] — higher, 9.93
- ATTGTATTAAAATGCACACATATCAAGAGGAATTTT [CACACA_site283] — higher, 9.86
- ATGTATATATTCAATTGTACATGTTATATTTACACA [XGTACX_site1125] — higher, 9.78
- AAAGAATAATTAAATACACACATATTGCAGTAAAAA [CACACA_site7201] — higher, 10.1
- TGTAAAATATAAAAAGTGCATTTCTTTTAATATGAT — lower, 9.49
- ATATTAAAATTTTAATGTACATGCGTATGTAGGAAT [XGTACX_site1673] — higher, 10.1
- AACATATATTTTTAATGTACAAGGTTGTAAAGAACT [XGTACX_site1405] — higher, 9.88
- TATATTATATTTTTATGTACTTATTTATTTTGTTTC [XGTACX_site6145] — higher, 9.83
- AAAGATATAAATTACTGTACTAATGAAATTGGTAAA [XGTACX_site3582] — lower, 9.68
- CAATTGATATTGAAATGTACTTTTTAGATGAACCTT [XGTACX_site2354] — lower, 9.42
- TTAAATAATGCCACCAGTACCCACTGAAAGAAAAAA [XGTACX_site5013] — lower, 9.74
- TATATTAAAATTTACTGTACTTTTTTTATTTTAAAA [XGTACX_site4077] — lower, 9.52
- AAAAAAAATACAAAAAGTACAAAAAATACAAAAAAA [XGTACX_site8844] — lower, 9.71
- TTCTTTTTTTAAAGAAGTACTATATTTTAAATTATA [XGTACX_site5059] — lower, 9.41
- TTTAAAATAAATTAATAGAACAAAAATAAAATGATT [GTGCAC_negctrl_site375] — lower, 9.63
- ATGTATATATATATATGTACATATTTTTTATATGTA [XGTACX_site441] — lower, 9.69
- AATTTTATTACTTTTACACACCTATATATCATTCAT [CACACA_site7525] — higher, 9.96
- ACCTTAAATAATACATGTACAAAAAAATTTATAATA [XGTACX_site1043] — lower, 9.54
- AAGAATAAGGAAAAATGTACAGAATGCACATATGAA [XGTACX_site4705] — lower, 9.73
- TAGGGATTATACCACACACACATACACATAAATATA [CACACA_site3178] — higher, 10.3
- TTTCAAATGATTAAGTGTACATGTTTGCTTGCTCTT [XGTACX_site4697] — lower, 9.47
- TTTTTTTTTGTTATGTTGCACTTTGCCATATTATTA [GTGCAC_site9844] — higher, 9.87
- AATAATAAAAAAAGTGCACACACATAATATATATAT [CACACA_site9100] — higher, 10.1
- AACAATATATTGATATTATTTTAAGTGATTATATAT [XGTACX_negctrl_site205] — lower, 9.65
